# Screen size: about 2,000 compounds; about 110 (5.5%) showed an effect of 50% or more. This is one part of the list.
# Target: Genome polyprotein (dengue virus type 2) (UniProt P29990)
# [1] = Thailand/16681/1984, Concentration 25.0 uM, Number of replicates 1.0
smiles,measurement,setting,value
O=Cc1ccc(N2CCC(C(=O)Nc3ccc(F)cc3Br)CC2)cc1,inhibition,[1],11.5%
Cn1cc(NC(=O)c2ccccc2C(F)(F)F)c(-c2cccc3cc[nH]c23)n1,inhibition,"Thailand/16681/1984, Concentration 49.5 uM, Number of replicates 2.0, Standard deviation 3.1084528093012986 %",-0.205%
same,inhibition,"Thailand/16681/1984, Concentration 99.01 uM, Number of replicates 2.0, Standard deviation 3.574033871935681 %",0.463%
same,inhibition,"Thailand/16681/1984, Concentration 198.0 uM, Number of replicates 2.0, Standard deviation 2.53248645301858 %",3.8%
c1cc(C2CCN(Cc3c[nH]c4ccccc34)CC2)c2ccncc2c1,inhibition,"Thailand/16681/1984, Concentration 49.5 uM, Number of replicates 2.0, Standard deviation 0.5847129231667904 %",1.3%
same,inhibition,"Thailand/16681/1984, Concentration 99.01 uM, Number of replicates 2.0, Standard deviation 0.7302727121768634 %",3.47%
same,inhibition,"Thailand/16681/1984, Concentration 198.0 uM, Number of replicates 2.0, Standard deviation 0.8919143055858442 %",5.67%
COc1ncc(NC(=O)C2CCN(c3ccc(C=O)cc3)CC2)cc1Br,inhibition,[1],9.05%
CNC(=O)c1cc(Cl)ccc1NS(=O)(=O)c1cccc(S(N)(=O)=O)c1,inhibition,"Thailand/16681/1984, Concentration 49.5 uM, Number of replicates 2.0, Standard deviation 0.4003966624337367 %",1.73%
same,inhibition,"Thailand/16681/1984, Concentration 99.01 uM, Number of replicates 2.0, Standard deviation 1.0615056375609497 %",3.26%
same,inhibition,"Thailand/16681/1984, Concentration 198.0 uM, Number of replicates 2.0, Standard deviation 0.04640199433655389 %",5.28%
Cc1cc(CO)c2cccc(Cc3cccc(NC(=O)C(=O)c4ccco4)c3)c2n1,inhibition,"Thailand/16681/1984, Concentration 49.95 uM, Number of replicates 2.0, Standard deviation 2.5499602835301056 %",-0.234%
same,inhibition,"Thailand/16681/1984, Concentration 99.9 uM, Number of replicates 2.0, Standard deviation 0.7837509937910023 %",-0.946%
Cc1ccc2n1CCN(C(=O)C1CCN(c3ccc(C=O)cc3)CC1)[C@H]2C,inhibition,[1],3.87%
O=Cc1ccc(N2CCC(C(=O)N3CCN(S(=O)(=O)N4CCOCC4)CC3)CC2)cc1,inhibition,[1],13.5%
c1ccc(CN2CC[C@H](c3c[nH]c4ccccc34)C2)nc1,inhibition,"Thailand/16681/1984, Concentration 49.5 uM, Number of replicates 2.0, Standard deviation 0.540853837861717 %",0.05%
same,inhibition,"Thailand/16681/1984, Concentration 99.01 uM, Number of replicates 2.0, Standard deviation 0.7402869166527072 %",0.515%
same,inhibition,"Thailand/16681/1984, Concentration 198.0 uM, Number of replicates 2.0, Standard deviation 1.8615560399297217 %",2.31%
COc1ccc(-c2ccccc2C(=O)Nc2cnn(C)c2)cc1F,inhibition,"Thailand/16681/1984, Concentration 49.5 uM, Number of replicates 2.0, Standard deviation 4.242255928539229 %",2.06%
same,inhibition,"Thailand/16681/1984, Concentration 99.01 uM, Number of replicates 2.0, Standard deviation 0.9271676998479934 %",0.017%
same,inhibition,"Thailand/16681/1984, Concentration 198.0 uM, Number of replicates 2.0, Standard deviation 0.9178960464517486 %",0.177%
CNC(=O)c1cccc(CCC(=O)Nc2cc(Cl)cc(C(=O)NC(C)(C)CO)c2)c1,inhibition,"Thailand/16681/1984, Concentration 49.5 uM, Number of replicates 2.0, Standard deviation 19.518689391215933 %",8.34%
same,inhibition,"Thailand/16681/1984, Concentration 99.01 uM, Number of replicates 2.0, Standard deviation 1.6573341598197608 %",-0.495%
same,inhibition,"Thailand/16681/1984, Concentration 198.0 uM, Number of replicates 2.0, Standard deviation 1.0104917664729398 %",-3.06%
Cc1nnc(Cn2cc(C3CCNCC3)c(C)n2)s1,inhibition,"Thailand/16681/1984, Concentration 49.5 uM, Number of replicates 2.0, Standard deviation 0.1829917327983261 %",-0.443%
same,inhibition,"Thailand/16681/1984, Concentration 99.01 uM, Number of replicates 2.0, Standard deviation 0.5888347947305582 %",-0.409%
same,inhibition,"Thailand/16681/1984, Concentration 198.0 uM, Number of replicates 2.0, Standard deviation 0.0063413305332520944 %",-0.948%
Cc1cc(CO)c2cccc(Cc3ccccc3C(=O)Nc3nonc3C(N)=O)c2n1,inhibition,"Thailand/16681/1984, Concentration 49.95 uM, Number of replicates 2.0, Standard deviation 0.20481615067396447 %",9.42%
same,inhibition,"Thailand/16681/1984, Concentration 99.9 uM, Number of replicates 2.0, Standard deviation 0.252245853764608 %",28.4%
COCCOCCOCCNC(=O)C1CCN(c2ccc(C=O)cc2)CC1,inhibition,[1],12.8%
Cc1cc(N)c2ccc(Cl)c(Cl)c2n1,inhibition,"Thailand/16681/1984, Concentration 49.95 uM, Number of replicates 2.0, Standard deviation 7.937403511191421 %",-5.89%
same,inhibition,"Thailand/16681/1984, Concentration 99.9 uM, Number of replicates 2.0, Standard deviation 7.875707869059826 %",-5.65%
CC(C)Cn1cccc(C(=O)Nc2ccncc2C2CC2)c1=O,inhibition,"Thailand/16681/1984, Concentration 49.5 uM, Number of replicates 2.0, Standard deviation 1.2909448200719489 %",4.27%
same,inhibition,"Thailand/16681/1984, Concentration 99.01 uM, Number of replicates 2.0, Standard deviation 4.556150504456328 %",2.96%
same,inhibition,"Thailand/16681/1984, Concentration 198.0 uM, Number of replicates 2.0, Standard deviation 3.815802862097451 %",0.046%
Cn1cc(NC(=O)c2ccccc2C(F)(F)F)c(C=Cc2cc(F)cc(F)c2)n1,inhibition,"Thailand/16681/1984, Concentration 49.5 uM, Number of replicates 2.0, Standard deviation 3.560297076041071 %",-3.17%
same,inhibition,"Thailand/16681/1984, Concentration 99.01 uM, Number of replicates 2.0, Standard deviation 3.05890219249989 %",-4.03%
same,inhibition,"Thailand/16681/1984, Concentration 198.0 uM, Number of replicates 2.0, Standard deviation 1.749976473181981 %",-0.417%
N=C(N)NCCC[C@H](NC(=O)[C@H](Cc1ccc(CN)cc1)NC(=O)c1ccccc1)B(O)O,inhibition,"Thailand/16681/1984, Concentration 25.0 uM, Number of replicates 3.0, Standard deviation 0.03506963405710981 %",99.2%
same,inhibition,"Thailand/16681/1984, Concentration 49.5 uM, Number of replicates 2.0, Standard deviation 0.000841588271065532 %",99.2%
same,inhibition,"Thailand/16681/1984, Concentration 49.5 uM, Number of replicates 2.0, Standard deviation 0.023586050776272474 %",99.1%
same,inhibition,"Thailand/16681/1984, Concentration 49.5 uM, Number of replicates 2.0, Standard deviation 0.03248746518177329 %",99.4%
same,inhibition,"Thailand/16681/1984, Concentration 49.5 uM, Number of replicates 2.0, Standard deviation 0.05596562002585788 %",99.3%
same,inhibition,"Thailand/16681/1984, Concentration 49.5 uM, Number of replicates 2.0, Standard deviation 0.06712205941408557 %",99.5%
same,inhibition,"Thailand/16681/1984, Concentration 49.5 uM, Number of replicates 2.0, Standard deviation 0.09040060678362256 %",99.2%
same,inhibition,"Thailand/16681/1984, Concentration 49.5 uM, Number of replicates 2.0, Standard deviation 0.09520737056259301 %",99.3%
same,inhibition,"Thailand/16681/1984, Concentration 49.95 uM, Number of replicates 2.0, Standard deviation 0.47465039008435067 %",97.5%
same,inhibition,"Thailand/16681/1984, Concentration 99.01 uM, Number of replicates 2.0, Standard deviation 0.0013325147625204256 %",99.6%
same,inhibition,"Thailand/16681/1984, Concentration 99.01 uM, Number of replicates 2.0, Standard deviation 0.024875407165917744 %",99.7%
same,inhibition,"Thailand/16681/1984, Concentration 99.01 uM, Number of replicates 2.0, Standard deviation 0.05930499912707304 %",99.8%
same,inhibition,"Thailand/16681/1984, Concentration 99.01 uM, Number of replicates 2.0, Standard deviation 0.0639876825840274 %",99.6%
same,inhibition,"Thailand/16681/1984, Concentration 99.01 uM, Number of replicates 2.0, Standard deviation 0.06968458780354793 %",99.8%
same,inhibition,"Thailand/16681/1984, Concentration 99.01 uM, Number of replicates 2.0, Standard deviation 0.07464240588758142 %",99.5%
same,inhibition,"Thailand/16681/1984, Concentration 99.01 uM, Number of replicates 2.0, Standard deviation 0.12292583554166162 %",99.6%
same,inhibition,"Thailand/16681/1984, Concentration 99.9 uM, Number of replicates 2.0, Standard deviation 0.4080138623651106 %",98.7%
same,inhibition,"Thailand/16681/1984, Concentration 198.0 uM, Number of replicates 2.0, Standard deviation 0.0010358009490037316 %",99.7%
same,inhibition,"Thailand/16681/1984, Concentration 198.0 uM, Number of replicates 2.0, Standard deviation 0.007655216388730705 %",99.8%
same,inhibition,"Thailand/16681/1984, Concentration 198.0 uM, Number of replicates 2.0, Standard deviation 0.011571838727151066 %",99.8%
same,inhibition,"Thailand/16681/1984, Concentration 198.0 uM, Number of replicates 2.0, Standard deviation 0.02492935513201169 %",99.9%
same,inhibition,"Thailand/16681/1984, Concentration 198.0 uM, Number of replicates 2.0, Standard deviation 0.05517797972088629 %",99.9%
same,inhibition,"Thailand/16681/1984, Concentration 198.0 uM, Number of replicates 2.0, Standard deviation 0.06791509451566656 %",99.8%
same,inhibition,"Thailand/16681/1984, Concentration 198.0 uM, Number of replicates 2.0, Standard deviation 0.07632018763310308 %",99.6%

# From ChEMBL document CHEMBL5606460, “ASAP - DENV-2 NS2B-NS3 protease fluorescence single point” (2024)
